B1: chr10:44834900:44834901:+_ENSMUSG00000019849_ENSMUST00000099858|mus_hu|FALSE|FALSE (ssRNA)
RNA: GGGAGUUCUACAGUCCGACGAUCGAAUGUGAACACCGUCCCCUCAUUGGUCACGUAGUCAUAUUCCCCUUCAAAGUUGUCAAUCAGUUUUACCCACUUCAGGAUUCCCGCGAUGCCACUGGAUUCCUGCUGUAGGUCACAGUACAACAGAGGAUUGAGCAUCA
B2: chr13:100201205:100201206:-_ENSMUSG00000052727_ENSMUST00000064762|mus_mus|motif|central (ssRNA)
RNA: GGGAGUUCUACAGUCCGACGAUCUUCAGUGAUAUGAAGCACACUGGCACCCAGAGUAGGGUGAUCUGGAGACUGCCGACGGAAGUCCAUAGCAAGAGAAUGCUCAGGGGAUUCCUGGCCGAACUCAAUAGACAUAGAAGACUGCAACAGAGGAUUGAGCAUCA
B3: chr6:40197388:40197389:+_ENSMUSG00000057716_ENSMUST00000061740|mus_mus|mus_mus_mus_hu_False|18_68 (ssRNA)
RNA: GGGAGUUCUACAGUCCGACGAUCGAGACACUGGGGUGGAUUUAUUCCACCUCUGUUUGGGUGCUAGUAAGAUAGAUUGUUAUUUUGGGAUUCAUGGCCUUGAAUAUCAAGAGGGAAGGGACGAGAAUGGAAAGAGUCAAGAGUCAACAGAGGAUUGAGCAUCA
B4: chr12:39756943:39756944:-_ENSG00000139116_ENST00000544797|hu_mus|hu_hu_hu_mus_False|38_58 (ssRNA)
RNA: GGGAGUUCUACAGUCCGACGAUCGGUUUGGCUGUUACCCCCAAGGGAAUCCUGCAAGAGUCUUGUCAGCUUAGAGUCUCUAUAGGGGACAUGGGUGGCCCUCUUGCUCUUGUCCCCCAAGGCGCUGAUUACAUUCCCAAGAGCCAACAGAGGAUUGAGCAUCA
B5: 108217923_108218043_487_3pUTR_ENSMUSG00000068740_ENSMUST00000090558|mouse|control|control (ssRNA)
RNA: GGGAGUUCUACAGUCCGACGAUCUGGUGAGCCUUCCCCAGCCCUGAGCCCUGGGGCCUGUGCCAGCUUGCAAGACUGGCAUCUGAGCCGUGGGGCCUUUAAGCAAGGGUGCUCUUCAGGCAGGGUCAGCGUGCCUUGUGGAGACAACAGAGGAUUGAGCAUCA
B6: 56335018_56335961_14662_CDS_ENSG00000151914_ENST00000244364|human|control|control (ssRNA)
RNA: GGGAGUUCUACAGUCCGACGAUCAUCGCCAUCUCUGUCAAAGAUGUCUGCAACUGCGCUCAUCUCCAAGCGACUGGUUGGAAACUUUGAGGAAAGAAUUCCAUCAAUAAAUUCCUGCCGCGUUAUUUUCCCAUCCUGGUCUUUCAACAGAGGAUUGAGCAUCA
B7: chr17:55757426:55757427:+_ENSG00000153944_ENST00000284073|hu_hu|motif|central (ssRNA)
RNA: GGGAGUUCUACAGUCCGACGAUCAGAAAGCUCACGCCCACCUCCCGCCCUGCACUUCACAACUUUGCUUCAGUGUGUGCGGAAGUUCCACCUGAAAAUUCAUACAGUCUCAGAAUUGGUACCAAAAUAUGGAGAGUCAUAUUACAACAGAGGAUUGAGCAUCA
B8: 79742064_79742518_3684_CDS_ENSG00000148606_ENST00000372371|human|control|control (ssRNA)
RNA: GGGAGUUCUACAGUCCGACGAUCCUGCACCACCACCUUGGGGAGAUCCUCUUUCAGGAACUGCAGCACGUAGUACAUGGAGCUCUUGCUGUUCUCUCUGGGGGUGACACACACCACAGCCUCACCAUGAACAGCCACAUCACCCAACAGAGGAUUGAGCAUCA
B9: chrX:71549762:71549763:+_ENSMUSG00000019087_ENSMUST00000019231|mus_mus|mus_mus_mus_hu_False|98_98 (ssRNA)
RNA: GGGAGUUCUACAGUCCGACGAUCAAACCCGUGUACUCACUCUUAACAGCACAACAUCACCAGAAAACGAUAACGACAGCCAAGCAGGACAGACAGUUAAGUAGUACUUCCACACUCCCAAACUCAGGGAGCCCUAUAACCUUACAACAGAGGAUUGAGCAUCA
B10: chr20:7962013:7962014:-_ENSG00000125827_ENST00000246024|hu_hu|FALSE|FALSE (ssRNA)
RNA: GGGAGUUCUACAGUCCGACGAUCGAGGACUUCUGGCUUGAAAAAUAUUGCUUAGAAAACUUAAAAAAAAAUCAACAACAACUAUAUUUUGGACAAAACAAUUUUUUUUUAAUCUGUCUUGUAAAAUCCUUACUUCCUUUUGAGCAACAGAGGAUUGAGCAUCA
B11: chr12:48362563:48362564:+_ENSG00000134291_ENST00000256686|hu_hu|hu_hu_hu_mus_False|88_88 (ssRNA)
RNA: GGGAGUUCUACAGUCCGACGAUCUCCGUCAAGCCCUUCGAUAGACCCAUAGACUCUAAACUGUAAUCACUUUGUAUGGGGAAGGAAAAGAAACGCCAAAAACUUUCCAAAAAGCGGGGGUGGGGUGAGGCGGGAGGGGGAGGUCAACAGAGGAUUGAGCAUCA
B12: chr7:3608459:3608460:+_ENSMUSG00000035632_ENSMUST00000038913|mus_hu|FALSE|FALSE (ssRNA)
RNA: GGGAGUUCUACAGUCCGACGAUCGCUGGGCGUUGGGGAGCUGGGAGGAUUCACAGGCAGUGGCACCAGGAGGCUGGGUCCCCCUGAGUUGUUCCCUGAGCCUGGGGCCACGCCCCCAGCCCCCGUUGGGGCUGCCGCACUGGGCAACAGAGGAUUGAGCAUCA
B13: chr4:57314706:57314707:+_ENSG00000128050_ENST00000264221|hu_mus|hu_hu_hu_mus_True|18_48 (ssRNA)
RNA: GGGAGUUCUACAGUCCGACGAUCCAGAAUUUCAAAAAUAGCUUGUGUGGCAUGACUCAUGAUGUCCACUUCAGUCUGCCCUAUAACAAGUCCAGCAAAACAGAAUUUUGCAGCAAUCAGCUGUUCCUCAGACCACUGUGGAUCCAACAGAGGAUUGAGCAUCA
B14: 130805848_130807722_2850_3pUTR_ENSMUSG00000027312_ENSMUST00000028781|mouse|control|control (ssRNA)
RNA: GGGAGUUCUACAGUCCGACGAUCGCACUCCGAGCUGCUGCUAGUGCACUCGCCACACGCUGUCCGCAGGGCACAUGGUGUCCGGCACUGCUUGGCACUGUGGUUUGCAGGCCUUUCACAGACGCUGCCAUUGAGAGGGUUGAUCAACAGAGGAUUGAGCAUCA

The record followed here is article PMC12136788.

This is one part of the list.

This assay deals with T1, UNK ZnF1-3 (human, UniProt Q9C0B0 31-174).
T1 sequence: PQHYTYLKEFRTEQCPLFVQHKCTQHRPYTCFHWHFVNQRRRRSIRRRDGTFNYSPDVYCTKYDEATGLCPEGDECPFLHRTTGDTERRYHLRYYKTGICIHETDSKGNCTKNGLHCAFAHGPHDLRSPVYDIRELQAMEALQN
Description: nsRBNS (natural sequence RNA bind-n-seq); RBNS binding buffer (assumed for nsRBNS): 25 mM Tris pH 7.5, 150 mM KCl, 3 mM MgCl2, 0.01% Triton X-100, 500 ug/ml BSA, 20 U/ml SUPERase-In, 4 C; UNK is unkempt and MSI1 is Musashi-1; names of the RNAs are library labels; protein concentration not given here; high values mean tight binding.
As for B1, the binding signal stood at 0.433 enrichment R.
The result for B2 reads 1.32 enrichment R; that for B3, 1.32 enrichment R.
The result for B4 reads 0.865 enrichment R.
As for B5, the figure is 0.498 enrichment R.
B6 gave a binding signal of 0.98 enrichment R.
As for B7, the figure is 1.3 enrichment R.
B8 came in with a binding signal of 0.866 enrichment R.
The result for B9 reads 1.88 enrichment R; that for B10, 1.23 enrichment R.
The result for B11 reads 2.08 enrichment R.
Molecule B12 gave a binding signal of 0.67 enrichment R.
As for B13, the figure is 0.999 enrichment R; as for B14, 0.361 enrichment R.
